Test results published in PubChem BioAssay AID1240 (Sanford-Burnham Center for Chemical Genomics, 2008).
Out of some 50,000 compounds screened, about 800 (1.6%) showed an effect of 50% or more. Some of the results follow.

target: Bcl-2-like protein 10 (Homo sapiens) (UniProt Q9HD36); assay: TR3 peptide-Bcl-B binding displacers, biochemical primary FP assay, phenotype converters (AID 1240); conditions: GST-Bcl-B / FITC-TR3 peptide fluorescence polarization; stronger effect = higher value; compound at 3.75 mg/L;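 note: 0% = Bcl-B with tracer peptide and DMSO and 100% = tracer peptide lacking Bcl-B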
Chain of UniProt Q9HD36 (Q9HD36 whole entry, looked up): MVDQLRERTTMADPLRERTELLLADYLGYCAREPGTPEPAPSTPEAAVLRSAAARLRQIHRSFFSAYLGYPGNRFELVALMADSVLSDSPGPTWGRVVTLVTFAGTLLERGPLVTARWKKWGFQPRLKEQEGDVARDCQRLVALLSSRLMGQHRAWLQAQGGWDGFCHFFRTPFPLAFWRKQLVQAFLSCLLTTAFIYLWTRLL

Row | SMILES | displacement [%]
1 | Cc1ccc(-c2ccccc2)n1-c1ccc(C(=O)O)cc1 | 21.4
2 | CC(=O)N(C)c1ccc(NC(=O)c2cccc([N+](=O)[O-])c2)cc1 | -0.5
3 | COc1ccc(C2Nc3ccccc3C(=O)N2Cc2ccco2)cc1Cn1nc(C)c([N+](=O)[O-])c1C (stereo not drawn) | 15.8
4 | Nc1nc(-c2ccccc2)cc(N2CCCCC2)n1 | -9
5 | CC(C)P(=O)(c1cccc(C(=O)O)c1)C(C)C | 14.4
6 | CCCC(=O)Nc1ccc(C)cc1[N+](=O)[O-] | 12.6
7 | COc1ccc(C(=O)O/N=C2/C(=O)N(C)c3ccccc32)cc1[N+](=O)[O-] | 3
8 | CCOc1ccc(-n2c(O)c(C=NCCCO)c(=O)[nH]c2=O)cc1 | -7.3
9 | CC1CN(C)C(c2ccccc2)CC1=O (stereo not drawn) | 9.2
10 | O=C1c2ccccc2C(=O)N1c1ncc(Cc2cccc(C(F)(F)F)c2)s1 | -5.8
11 | CCOc1ccc(C=NNC(=O)CNS(=O)(=O)N2CCOCC2)cc1 | -1.8
12 | CS(=O)(=O)N(Cc1ccc(C(=O)N2CCN(c3ccccc3)CC2)cc1)c1ccccc1 | 1.4
13 | COc1cc(C(C2=C(O)CC(C)(C)CC2=O)C2C(=O)CC(C)(C)CC2=O)cc(OC)c1OC (stereo not drawn) | -7.8
14 | O=C(Nc1cccc([N+](=O)[O-])c1)c1ccc(-c2ccccc2)cc1 | 24.6
15 | O=C(N/N=C/C=N/NC(=O)c1ccccc1Cl)c1ccccc1Cl | 4.1
16 | O=C(Cc1ccccc1)Nc1cc(C(=O)O)cc(C(=O)O)c1 | 0.4
17 | Cc1ccc(C(=O)O/N=C(\N)c2ccc(C)cc2)cc1 | -12.7
18 | COC(=O)c1ccc(/C=C2\SC(=NCc3ccccc3)N(Cc3ccccc3)C2=O)cc1 | 11
19 | O=C(CCC1CCCC1)Nc1cccc(F)c1 | -9.7
20 | O=C1NN(c2ccccc2)C(=O)/C1=C/c1cccc(F)c1 | -4.8
21 | COc1ccc(OCC(=O)Nc2ccc(S(=O)(=O)C(F)F)cc2)cc1 | -1.2
22 | O=C(N/N=C/c1ccc(I)cc1)C1CC(=O)N(c2ccccc2)C1 (stereo not drawn) | -13

Row | SMILES | displacement [%]
23 | CC(=O)NS(=O)(=O)c1ccc(NC(=O)/C=C/c2ccc(F)cc2)cc1 | -5.1
24 | COc1ccc(C(=O)Nc2cc(C(F)(F)F)ccc2Cl)cc1 | 13.2
25 | CCOC(=O)c1c(-c2ccccc2)oc2ccc(OC(=O)c3cccc([N+](=O)[O-])c3)cc12 | 10.8
26 | CCOc1cccc(C(=O)Nc2ccc(I)cc2Cl)c1 | 10.7
27 | CC(C)(C)c1ccc(C(=O)N2CCCCCC2)cc1 | 7.2
28 | CCCCN1C(=O)/C(=C/c2c(NCCCn3ccnc3)nc3c(C)cccn3c2=O)SC1=S | -17.7
29 | CCOc1ccccc1N/C(=N/c1nc(C)cc(C)n1)NC(=O)c1ccccc1 | -15.9
30 | CN(c1ccc(C(=O)N2CCN(c3ccccc3)CC2)cc1)S(=O)(=O)c1ccccc1 | -0.8
31 | O=C(Nc1ccc(Cl)cc1)Nc1ccc2c(c1)OCCO2 | -28.9
32 | CCOC(=O)C1=C(C)N=c2s/c(=C\c3ccc(OC)c(O)c3)c(=O)n2C1c1ccc(Cl)cc1 (stereo not drawn) | -5.3
33 | O=C(CC(c1ccccc1)c1ccccc1)N1CCN(c2cccc(Cl)c2)CC1 | -25.1
34 | Cc1ccc(OCC(=O)N2CCN(c3ccccc3)CC2)c(C)c1 | 8
35 | O=C1NC(=O)/C(=C\c2ccncc2)S1 | 11.3
36 | O=C(COc1ccccc1O)NCCN1CCOCC1 | 5
37 | CC1CCN(C(=O)c2cc3n(n2)C(C(F)(F)F)CC(c2ccccc2)N3)CC1 (stereo not drawn) | 16
38 | COC(=O)C1=C(C)N(C)C(C)=C(C(=O)OC)C1c1ccccn1 | -11
39 | CC(C)(C)c1cc(C(=O)N/N=C/C=C/c2ccccc2)n[nH]1 | -9.5
40 | O=C1c2cccc3c4ccccc4n(c23)C(=O)C1(O)O | 7.8
41 | CCOc1ccc(OCC)c(C2C3CCCCC=C3C(C#N)=C(N)C2(C#N)C#N)c1 (stereo not drawn) | 11
42 | COc1ccc(Br)cc1/C=C/C(=O)Nc1cccnc1 | 0.6
43 | Cc1ccccc1N(CC(=O)NCc1ccncc1)S(=O)(=O)c1ccccc1 | 2.7
44 | O=C(Nc1cccc2ccccc12)c1cc(Br)ccc1Cl | 14.4

Row | SMILES | displacement [%]
45 | O=C(Nc1cccc2c1C(=O)c1c(NC(=O)c3ccccc3)cccc1C2=O)c1ccccc1 | -12.3
46 | CC(C(=O)c1ccc(-c2ccccc2)cc1)[n+]1ccccc1 (stereo not drawn) | 7.5
47 | CC(=O)c1cccc(N2C(=O)C3C4C=CC(C4=C(C)C)C3C2=O)c1 (stereo not drawn) | 9
48 | COC(=O)CCC(=O)c1ccc(C(C)(C)c2ccc(C(=O)CCC(=O)OC)s2)s1 | -6.8
49 | c1coc(Cn2c(-c3ccco3)nc3ccccc32)c1 | 5.6
50 | CC1CC(O)N(c2ccccc2)C(=S)N1 (stereo not drawn) | 8.5
51 | CCC(=O)N1CC23C=CC(CC2CC12CCCCC2)O3 (stereo not drawn) | -7.4
52 | Cc1ccc(NC(=O)c2ccc(Cl)cc2Cl)c([N+](=O)[O-])c1 | 3.6
53 | O=C(N/N=C/c1c[nH]c2ccccc12)C1CC(=O)N(c2ccccc2)C1 (stereo not drawn) | -8.3
54 | Cc1cc2[nH]c(=O)c(CCO)c(C)n2n1 | -5.1
55 | O=C(Nc1nncs1)C(Sc1ccccc1)c1ccccc1 (stereo not drawn) | -4.9
56 | O=C(Nc1ccc(Br)cc1)NS(=O)(=O)c1ccccc1Cl | 4.1
57 | COC(=O)c1c(NC(=O)/C=C/c2ccccc2)sc2c1C(C(=O)OC)CC2 (stereo not drawn) | -28.4
58 | O=C(NCc1ccc(Cl)c(Cl)c1)c1ccc(Br)cc1 | 11.4
59 | COc1cccc(C2C(C(=O)Nc3ccccc3)=C(C)N=c3s/c(=C\c4cccs4)c(=O)n32)c1 (stereo not drawn) | 79.1
60 | COCCOC(=O)c1c(C)oc2ccc(OC(=O)c3ccc(Cl)cc3)cc12 | 5.4
61 | COc1ccc(NC(=O)/C(C#N)=C\c2ccc(Sc3ccccc3)o2)cc1 | -3.6
62 | Cc1cccc(/C=N/NC(=O)c2cccc(F)c2)c1O | -5.7
63 | COc1ccc(O)c(-c2cc(C(F)(F)F)nc(-c3ccccc3)n2)c1 | 25.3
64 | CC1(C)Cc2c(sc3nc(-c4ccccc4Cl)n(N)c(=O)c23)CO1 | 4.3
65 | C=CCN1C(=O)/C(=C/c2ccc(OC(=O)c3ccccc3I)c(OC)c2)SC1=S | -7.8
66 | COc1ccc(/C=C/C(=O)c2cccc(OC)c2)cc1 | -14.7

Row | SMILES | displacement [%]
67 | COc1ccc(CCN2C(=O)C3C4c5ccccc5C(C)(c5ccccc54)C3C2=O)cc1OC (stereo not drawn) | -1.3
68 | Cc1cccc(OCC(=O)N=Nc2c(O)[nH]c3ccc([N+](=O)[O-])cc23)c1 | 20
69 | Cc1ccc2oc(-c3ccc(NC(=O)Cc4ccccc4)c(C)c3)nc2c1 | -6.9
70 | CC(C)(C)c1ccc(C(=O)Nc2c(F)c(F)c(F)c(F)c2F)cc1 | -10.6
71 | COc1cc(/C=C2\C(=O)NC(=O)N(c3ccc(Br)cc3)C2=O)ccc1OCC(=O)O | -14.2
72 | O=C(Cc1ccccc1)Nc1ccc(Cl)c(-c2nc3cc(Cl)ccc3o2)c1 | -37.9
73 | CCN(CC)c1ccc(/C=C2/SC(=S)N(CC(=O)OC)C2=O)cc1 | 3.1
74 | COc1ccccc1/C=C1\SC(=S)N(c2cccc(C)c2C)C1=O | -7.3
75 | COc1ccc(CC(=O)Nc2nc(-c3ccc4ccccc4c3)cs2)cc1 | -5.1
76 | O=C(Nc1cccc2ccccc12)C1C(c2ccccc2)=C1c1ccccc1 | 4.3
77 | Cc1cc(OCC(=O)Nc2ccccc2F)ccc1Cl | -1.2
78 | CC(C)c1ccc(/C=C2/SC(=O)N(c3ccccc3)C2=O)cc1 | 1.4
79 | Cc1nnc(C)n1/N=C\c1cccc2ccccc12 | -1.9
80 | CCOC(=O)c1cccc(NC(=O)COc2ccc(OC)cc2)c1 | -0.9
81 | COc1ccc(CC(=O)Nc2ccc3oc(-c4ccncc4)nc3c2)cc1OC | -1.5
82 | CCOc1ccc(C2Nc3ccc4ccccc4c3C3=C2C(=O)CC(C)(C)C3)cc1OC (stereo not drawn) | 2.8
83 | CC(=O)Nc1cc(-c2nc3cc(Cl)cc(Cl)c3o2)ccc1C | -1.2
84 | CCC1(CC)NC(=S)N(c2ccc(C)cc2)N1 | 11.8
85 | CC(C)NC(=O)/C(=C\c1ccco1)NC(=O)c1ccccc1 | 8.2
86 | Cc1c(NC(=O)c2cccs2)cccc1NC(=O)c1cccs1 | -2.3
87 | O=C(Nc1ccc(N2CCOCC2)cc1)c1cccc([N+](=O)[O-])c1 | -5.6
88 | CN1C(=O)/C(=C2/SC(=O)N(c3cccc(Cl)c3)C2=S)c2ccccc21 | -5.6

Row | SMILES | displacement [%]
89 | O=C(O)c1ccccc1C(=O)c1ccc(Cl)c(N2C(=O)C3CC=CCC3C2=O)c1 (stereo not drawn) | -7.2
90 | O=C(Nc1ccc(-c2cnc(-c3ccc(NC(=O)C(F)(F)F)cc3)nc2)cc1)C(F)(F)F | 19
91 | CCOC(=O)c1sc(NC(=O)c2ccc([N+](=O)[O-])s2)nc1C | 1.6
92 | COc1ccc(CNC(=O)c2cc3n(n2)C(C(F)(F)F)CC(c2ccc(Cl)c(Cl)c2)N3)cc1 (stereo not drawn) | 5.1
93 | Cc1n[nH]c(C)c1Sc1ccccc1N=Cc1ccc2ccccc2c1 | 8.6
94 | O=C(c1ccc(Cl)c(Cl)c1)N1CCN(C(c2ccccc2)c2ccccc2)CC1 | 16.4
95 | CC1CCc2c(sc(NC(=O)/C=C/c3ccc4c(c3)OCO4)c2C(N)=O)C1 (stereo not drawn) | 144
96 | CCCCCCCNC1CC(=O)N(c2ccc(C(=O)OCC)cc2)C1=O (stereo not drawn) | -4.5
97 | Cc1ccc(/C=C2/SC(=O)N(c3ccccc3)C2=O)cc1 | 3
98 | O=[N+]([O-])c1cccc(S(=O)(=O)NCCc2ccccc2)c1 | 5.8
99 | O=C(NCC(c1ccccc1)c1ccccc1)Nc1cccc(Cl)c1 | 1.4
100 | COc1cc(/C=C2\SC(=S)N(CC(=O)N3CCCc4ccccc43)C2=O)cc(OC)c1OC | 91.5
101 | CCOc1ccccc1NC(=O)CCN1C(=O)c2ccccc2C1=O | 9.6
102 | COc1ccccc1-c1nc(-c2ccc(Cl)cc2Cl)no1 | 8
103 | CCCC(=O)Nc1ccc2nn(-c3ccc(F)cc3)nc2c1 | 0.6
104 | O=C(CCOc1ccccc1)Nc1cccc([N+](=O)[O-])c1 | -4.5
105 | O=C1C=C(NNC(=O)c2ccc(Cl)cc2)CCC1 | 42.5
106 | O=C(NCC1CCCO1)c1nc2nc(-c3ccccc3)cc(C(F)(F)F)n2n1 (stereo not drawn) | -2.3
107 | CCc1ccccc1NC(=O)c1ccc(Cl)c([N+](=O)[O-])c1 | 19.4
108 | Cc1cccc(/C(N)=N/OC(=O)COc2ccccc2)c1 | 8.2
